These results are taken from the antibiotic and cytotoxicity screens of Wong et al. (2023).

Some of the results follow.

The subject of the test is S. aureus RN4220. Put plainly: growth inhibition call (relative growth <= 0.2). As to conditions: 50 µM.
Turning to `C[C@H]1CN([C@@H](C)CO)C(=O)c2cccc(NC(=O)c3ccc(-c4nccs4)cc3)c2O[C@H]1CN(C)Cc1ccc(C(F)(F)F)cc1`, the growth inhibition call was “inactive”.

As to `CCC(=O)N1C[C@]2(CN(C2)C(=O)CN2CCOCC2)c2c([nH]c3cc(ccc23)OC)[C@@H]1CO`, the growth inhibition call was “inactive”. The same measure for `Cc1ccccc1S(=O)(=O)N1C[C@H](O)COC[C@H]2O[C@H](CC(=O)N3CCN(C)CC3)CC[C@@H]21`: “inactive”. The same measure for `Cc1noc(C)c1S(=O)(=O)Nc1ccc2c(c1)C(=O)N([C@@H](C)CO)C[C@@H](C)[C@@H](CN(C)Cc1ccc(C(F)(F)F)cc1)OCCCC[C@@H](C)O2`: “inactive”; for `CN(C)CCC(c1ccc(Br)cc1)c1ccccn1.O=C(O)C=CC(=O)O` (stereo unspecified): “inactive”; for `Cc1ccc(S(=O)(=O)N(C)C[C@H]2Oc3ncc(-c4ccncc4)cc3C(=O)N([C@H](C)CO)C[C@H]2C)cc1`: “inactive”.

For the molecule `CO[C@@H]1CN(C)C(=O)c2cc(NC(=O)c3ccc(F)cc3)ccc2OC[C@H](C)N(C(=O)CN(C)C)C[C@@H]1C`, the growth inhibition call is “inactive”.

Consider `CNC(=O)C[C@H]1CC[C@@H]2[C@H](COC[C@@H](O)CN2C(=O)c2ccccn2)O1`, for which the growth inhibition call was “inactive”.

Turning to `COc1ccc(NC(=O)N(C)C[C@@H]2OCCCC[C@H](C)Oc3ccc(NC(=O)CCC(F)(F)F)cc3C(=O)N([C@@H](C)CO)C[C@@H]2C)cc1`, the growth inhibition call was “inactive”.

`CC(C)[C@@H](CC[C@@H](C)[C@H]1CC[C@H]2[C@@H]3[C@H](O)C[C@H]4C[C@@H](NCCCNCCCCN)CC[C@]4(C)[C@H]3CC[C@]12C)OS(=O)(=O)O`: the growth inhibition call was “inactive”. In the case of `COCCN1C[C@]23CN(C(=O)COC)C[C@@H](C[C@H]2S1(=O)=O)O3`, the growth inhibition call was “inactive”. The result for `C[C@H]1CCCCO[C@H](CN(C)C(=O)Nc2cccc3ccccc23)[C@@H](C)CN([C@@H](C)CO)C(=O)c2cc(NS(=O)(=O)c3ccc(Cl)cc3)ccc2O1` reads “inactive”; that for `C[C@@H]1CN([C@@H](C)CO)C(=O)Cc2cc(NC(=O)Cn3cnnn3)ccc2O[C@@H]1CN(C)S(=O)(=O)c1ccccc1`, “inactive”. The result for `Cn1cnc(S(=O)(=O)N[C@H]2CC[C@@H](CC(=O)NCC3CC3)O[C@H]2CO)c1` reads “inactive”.

Consider `O=C(O)/C=C\C(=O)NCc1cccnc1`, for which the growth inhibition call is “inactive”. The same measure for `C[C@@H]1CCCCO[C@@H](CN(C)C(=O)CCC(F)(F)F)[C@H](C)CN([C@@H](C)CO)C(=O)c2cc(NC(=O)NC3CCCCC3)ccc2O1`: “inactive”.
